Experimental data reported in article PMC9911399, “Two distinct binding modes provide the RNA-binding protein RbFox with extraordinary sequence specificity”.
Substitutions are numbered along the chain they refer to; changes in the protein carry UniProt numbers. The list shows a part of the results.

T1: RBFOX1 RRM (Homo sapiens, UniProt Q9NWB1 109-208)
T1 sequence: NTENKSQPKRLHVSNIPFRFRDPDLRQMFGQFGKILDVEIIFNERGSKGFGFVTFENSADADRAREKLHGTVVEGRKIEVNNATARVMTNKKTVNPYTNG

B1: AGCCGUG (DNA:RNA)
RNA: GGGAGACCGGAAUUCAGAUUGUCCAGCCGUGUUAAAUCCCGUCGUAGCCACCA
DNA 1: CAATCTGAATTCCGGTCTCCC
DNA 2: TGGTGGCTACGACGGGATT
B2: ACAUGAU (DNA:RNA)
RNA: B1 RNA with G26C, C27A, C28U, U30A, G31U
DNA 1: CAATCTGAATTCCGGTCTCCC
DNA 2: TGGTGGCTACGACGGGATT
B3: CUGUAAU (DNA:RNA)
RNA: GGGAGACCGGAAUUCAGAUUGUCCCUGUAAUUUAAAUCCCGUCGUAGCCACCA
DNA 1: CAATCTGAATTCCGGTCTCCC
DNA 2: TGGTGGCTACGACGGGATT
B4: CAGCAAG (DNA:RNA)
RNA: B3 RNA with U26A, U28C, U31G
DNA 1: CAATCTGAATTCCGGTCTCCC
DNA 2: TGGTGGCTACGACGGGATT
B5: GAUUGCG (DNA:RNA)
RNA: B1 RNA with A25G, G26A, C27U, C28U, U30C
DNA 1: CAATCTGAATTCCGGTCTCCC
DNA 2: TGGTGGCTACGACGGGATT
B6: UCGAACG (DNA:RNA)
RNA: B3 RNA with C25U, U26C, U28A, A30C, U31G
DNA 1: CAATCTGAATTCCGGTCTCCC
DNA 2: TGGTGGCTACGACGGGATT
B7: AGACUUU (DNA:RNA)
RNA: B1 RNA with C27A, G29U, G31U
DNA 1: CAATCTGAATTCCGGTCTCCC
DNA 2: TGGTGGCTACGACGGGATT
B8: ACCGGCA (DNA:RNA)
RNA: B1 RNA with G26C, C28G, U30C, G31A
DNA 1: CAATCTGAATTCCGGTCTCCC
DNA 2: TGGTGGCTACGACGGGATT
B9: AGCCGGC (DNA:RNA)
RNA: B1 RNA with U30G, G31C
DNA 1: CAATCTGAATTCCGGTCTCCC
DNA 2: TGGTGGCTACGACGGGATT
B10: UGUAAGA (DNA:RNA)
RNA: B1 RNA with A25U, C27U, C28A, G29A, U30G, G31A
DNA 1: CAATCTGAATTCCGGTCTCCC
DNA 2: TGGTGGCTACGACGGGATT
B11: AUUUUAC (DNA:RNA)
RNA: B3 RNA with C25A, G27U, A29U, U31C
DNA 1: CAATCTGAATTCCGGTCTCCC
DNA 2: TGGTGGCTACGACGGGATT
B12: CAUUGUC (DNA:RNA)
RNA: B1 RNA with A25C, G26A, C27U, C28U, G31C
DNA 1: CAATCTGAATTCCGGTCTCCC
DNA 2: TGGTGGCTACGACGGGATT
B13: AGAUUUA (DNA:RNA)
RNA: B1 RNA with C27A, C28U, G29U, G31A
DNA 1: CAATCTGAATTCCGGTCTCCC
DNA 2: TGGTGGCTACGACGGGATT
B14: AGUCAUA (DNA:RNA)
RNA: B1 RNA with C27U, G29A, G31A
DNA 1: CAATCTGAATTCCGGTCTCCC
DNA 2: TGGTGGCTACGACGGGATT
B15: UUUGGAA (DNA:RNA)
RNA: B3 RNA with C25U, G27U, U28G, A29G, U31A
DNA 1: CAATCTGAATTCCGGTCTCCC
DNA 2: TGGTGGCTACGACGGGATT
B16: GCCCGGG (DNA:RNA)
RNA: B1 RNA with A25G, G26C, U30G
DNA 1: CAATCTGAATTCCGGTCTCCC
DNA 2: TGGTGGCTACGACGGGATT
B17: CGUUCAG (DNA:RNA)
RNA: B3 RNA with U26G, G27U, A29C, U31G
DNA 1: CAATCTGAATTCCGGTCTCCC
DNA 2: TGGTGGCTACGACGGGATT
B18: AGGCGAC (DNA:RNA)
RNA: B1 RNA with C27G, U30A, G31C
DNA 1: CAATCTGAATTCCGGTCTCCC
DNA 2: TGGTGGCTACGACGGGATT
B19: CUAUACA (DNA:RNA)
RNA: B3 RNA with G27A, A30C, U31A
DNA 1: CAATCTGAATTCCGGTCTCCC
DNA 2: TGGTGGCTACGACGGGATT
B20: CCAGAGU (DNA:RNA)
RNA: B3 RNA with U26C, G27A, U28G, A30G
DNA 1: CAATCTGAATTCCGGTCTCCC
DNA 2: TGGTGGCTACGACGGGATT
B21: UACGUUA (DNA:RNA)
RNA: B1 RNA with A25U, G26A, C28G, G29U, G31A
DNA 1: CAATCTGAATTCCGGTCTCCC
DNA 2: TGGTGGCTACGACGGGATT
B22: ACCAGGA (DNA:RNA)
RNA: B1 RNA with G26C, C28A, U30G, G31A
DNA 1: CAATCTGAATTCCGGTCTCCC
DNA 2: TGGTGGCTACGACGGGATT
B23: CCUUGCA (DNA:RNA)
RNA: B3 RNA with U26C, G27U, A29G, A30C, U31A
DNA 1: CAATCTGAATTCCGGTCTCCC
DNA 2: TGGTGGCTACGACGGGATT
B24: UACGAAC (DNA:RNA)
RNA: B3 RNA with C25U, U26A, G27C, U28G, U31C
DNA 1: CAATCTGAATTCCGGTCTCCC
DNA 2: TGGTGGCTACGACGGGATT
B25: ACUUUCG (DNA:RNA)
RNA: B1 RNA with G26C, C27U, C28U, G29U, U30C
DNA 1: CAATCTGAATTCCGGTCTCCC
DNA 2: TGGTGGCTACGACGGGATT
B26: AGAAGGC (DNA:RNA)
RNA: B1 RNA with C27A, C28A, U30G, G31C
DNA 1: CAATCTGAATTCCGGTCTCCC
DNA 2: TGGTGGCTACGACGGGATT
B27: AGGGCUU (DNA:RNA)
RNA: B1 RNA with C27G, C28G, G29C, G31U
DNA 1: CAATCTGAATTCCGGTCTCCC
DNA 2: TGGTGGCTACGACGGGATT
B28: UCGCCGU (DNA:RNA)
RNA: B3 RNA with C25U, U26C, U28C, A29C, A30G
DNA 1: CAATCTGAATTCCGGTCTCCC
DNA 2: TGGTGGCTACGACGGGATT
B29: GUGUGCG (DNA:RNA)
RNA: B3 RNA with C25G, A29G, A30C, U31G
DNA 1: CAATCTGAATTCCGGTCTCCC
DNA 2: TGGTGGCTACGACGGGATT
B30: AUGGGCA (DNA:RNA)
RNA: B1 RNA with G26U, C27G, C28G, U30C, G31A
DNA 1: CAATCTGAATTCCGGTCTCCC
DNA 2: TGGTGGCTACGACGGGATT

Columns and labels:
RBFOX1 RRM [1] = target: T1, RBFOX1 RRM; assay: EMSA; HiTS-Eq, 1 nM pool, 10 min; buffer printed only for the single-RNA assays: 10 mM Tris pH 7.5, 150 mM NaCl, 3.4 mM EDTA, 0.001% NP-40, 30 C; conditions: tags: His6 N-terminal (pET28a); label: 5' 32P
How it was run: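 A pool of RNA with 7 randomized nucleotides, 5′-radiolabelled and with DNA-annealed flanks, was equilibrated at 1 nM for 10 min in 50 µL with purified RbFox RRM, wild type or mutant, across increasing protein concentrations. Free RNA was separated by 8% native PAGE, excised, reverse-transcribed, barcoded by PCR and sequenced. Relative association constants were obtained from read-count changes of each RNA species versus the control reaction and normalised to the cognate motif.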

RBFOX1 RRM [2] = target: T1, RBFOX1 RRM; assay: competition; 10 mM Tris pH 7.5, 150 mM NaCl, 3.4 mM EDTA, 0.001% NP-40, 30 C; conditions: tags: His6 N-terminal (pET28a)

Row | Binder | binding signal (RBFOX1 RRM [1]) | binding signal (RBFOX1 RRM [2]) [nM]
1 | B1 | 0.0114 KA relative to UGCAUGU | –
2 | B2 | 0.00584 KA relative to UGCAUGU | –
3 | B3 | 0.00859 KA relative to UGCAUGU | –
4 | B4 | 0.0119 KA relative to UGCAUGU | –
5 | B5 | 0.0264 KA relative to UGCAUGU | –
6 | B6 | 0.0172 KA relative to UGCAUGU | –
7 | B7 | 0.0086 KA relative to UGCAUGU | –
8 | B8 | 0.00809 KA relative to UGCAUGU | –
9 | B9 | 0.00734 KA relative to UGCAUGU | –
10 | B10 | 0.0151 KA relative to UGCAUGU | –
11 | B11 | 0.006 KA relative to UGCAUGU | –
12 | B12 | 0.00929 KA relative to UGCAUGU | –
13 | B13 | 0.00707 KA relative to UGCAUGU | –
14 | B14 | 0.00123 KA relative to UGCAUGU | –
15 | B15 | 0.00819 KA relative to UGCAUGU | –
16 | B16 | 0.0183 KA relative to UGCAUGU | –

Row | Binder | binding signal (RBFOX1 RRM [1]) | binding signal (RBFOX1 RRM [2]) [nM]
17 | B17 | 0.0112 KA relative to UGCAUGU | –
18 | B18 | 0.00548 KA relative to UGCAUGU | –
19 | UGCGUGU (ssRNA) | – | 196
20 | B19 | 0.00316 KA relative to UGCAUGU | –
21 | B20 | 0.00818 KA relative to UGCAUGU | –
22 | B21 | 0.00791 KA relative to UGCAUGU | –
23 | B22 | 0.00385 KA relative to UGCAUGU | –
24 | B23 | 0.0157 KA relative to UGCAUGU | –
25 | B24 | 0.00432 KA relative to UGCAUGU | –
26 | B25 | 0.0143 KA relative to UGCAUGU | –
27 | B26 | 0.00991 KA relative to UGCAUGU | –
28 | B27 | 0.0189 KA relative to UGCAUGU | –
29 | B28 | 0.0106 KA relative to UGCAUGU | –
30 | B29 | 0.0191 KA relative to UGCAUGU | –
31 | B30 | 0.0198 KA relative to UGCAUGU | –
